Measurements: PMC12040169 (PLOS Biology, 2025)
The list shows a part of the results.

Each compound was assayed on T1, C. trachomatis L2/434/Bu expressing GFP (CTL2-GFP). Details: total inclusion area; 28.5 h, 10 µM; inhibitor.
T1 construct: L2/434/Bu GFP intracellular growth in HeLa cells
Set-up: species or system HeLa; C. trachomatis total inclusion area by high-content imaging, normalised to DMSO
Summary of the method: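 High-content images of fixed, Hoechst-stained infected cultures supply inclusion area and count (growth) plus nuclei number (viability), complementing bulk GFP/resorufin fluorescence. MIC determination is unchanged from the primary assay.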

SMILES	% of control remaining
c1cc2c(cc1CNc1nnn[nH]1)OCO2 [CBK018783]	65.8296
CC(=O)Nc1sc2c(c1C(=O)O)CCc1ccccc1-2 [CBK126812]	0.9737
CCOc1cc(NC2CCN(C(=O)C3(CCOC)CC3)CC2)ncn1 [CBK304434]	42.462
O=C(c1cccs1)N1CCN(S(=O)(=O)c2cccc([N+](=O)[O-])c2)CC1 [CBK266184]	110.708
Cc1cc(C(=O)CN(C)S(=O)(=O)c2ccc(Cl)c(Cl)c2)c(C)n1C [CBK295661]	106.514
COc1ccc(Oc2nccc(N3CCCN(Cc4ccc(C(F)(F)F)cc4)CC3)n2)cc1OC [CBK084152]	70.651
O=C(NCc1ccc(-c2csnn2)cc1)c1c(F)cccc1F [CBK149310]	83.5114
CN1CCC(N(C)S(=O)(=O)c2ccc(C(C)(C)C)cc2)C1 (stereo not drawn) [CBK059036T]	39.2453
O=C(Nc1ccc(S(=O)(=O)N2CCCCC2)cc1)c1ccc(CN2CCOCC2)cc1 [CBK264002]	82.6269
CC(=O)NS(=O)(=O)c1ccc(NC(=O)/C=C/c2cccc([N+](=O)[O-])c2)cc1 [CBK300492]	97.713
CS(=O)(=O)NCC1CCCN(C(=O)Nc2cccc(Cl)c2)C1 (stereo not drawn) [CBK305736]	83.7636
CC(CCc1ccc(O)cc1)NC1CCCC1 (stereo not drawn) [CBK033987]	64.9322
Cc1noc(C)c1CC(=O)NCC(C)(C)N1CCCCC1 [CBK281863]	100.141
O=[N+]([O-])c1ccc(Sc2ccccc2C2=NCCCN2)nc1 [CBK006747C]	94.4582
CC[C@H]1CN(C(=O)c2cccnc2)CC[C@H]1CC(=O)NCc1cccs1 [CBK288773]	75.6951
O=C(c1ccc2c(c1)CCO2)N1CCC(Sc2ccc(-c3ccccc3)cc2)CC1 [CBK131953]	68.8881
COc1ccc(Cl)cc1CN(C)C(=O)c1ccc(C)[nH]c1=O [CBK305794]	17.7052
CN1CCC(N2CC[C@@H]3[C@H]2C(=O)NC[C@H](CCC(=O)NCc2ccccc2)N3C)CC1 [CBK289026]	84.4205
Cc1cccc(CCNC(=O)N2CCC(Cc3cnn(C)c3)C2)c1 (stereo not drawn) [CBK305137]	79.6046
COc1cccc(CN2CC[C@@H]3[C@H](C2)[C@@H](c2ccc(F)cc2)CN3C(=O)c2ccccc2)c1 [CBK286292]	74.9281
NCCNC(=O)c1cc2cc(OC(F)(F)F)ccc2[nH]1 [CBK107368]	86.8282
Clc1ccc(Nc2cncc(-c3cccnc3)n2)cc1 [CBK065234]	120.289
O=C(CSc1nc2ccccc2[nH]1)Nc1ccc(OC(F)(F)F)cc1 [CBK269711]	109.258
c1ccc2c(-c3cn4ccnc4c(N4CCOCC4)n3)cccc2c1 [CBK037387]	58.6955
O=C(c1ccc2c(c1)OCCO2)N1CCN(c2ncccn2)CC1 [CBK144519]	86.4085
O=C(O)c1ccc(CNCC(O)c2ccccc2)cc1 (stereo not drawn) [CBK287243]	129.321

SMILES	% of control remaining
CN(C)[C@H]1CCCC[C@@H]1OC(=O)c1ccc(C(F)(F)F)cc1 [CBK010550F]	117.129
CCOC(=O)NC(=O)c1ccccc1 [CBK012359]	77.8227
Cc1sc(NC(=O)COc2ccccc2)c(C(N)=O)c1-c1ccccc1 [CBK268164]	105.449
Cc1csc2ncc(C(=O)Nc3ccccc3C#N)c(=O)n12 [CBK287458]	82.8996
CC(=O)NCCSc1nccc(C(F)(F)F)n1 [CBK105301]	78.5575
CCCSc1scc2c1-c1n[nH]cc1CC2 [CBK017006]	13.0102
O=C(CSc1nnc(-c2cccnc2)n1-c1ccc(Br)cc1)Nc1ccc2c(c1)OCO2 [CBK266153]	117.897
CCN(CC)c1ccc(CN(CCCN(C)C)C(=O)NCc2ccc(F)cc2)cc1 [CBK159410]	88.657
COC(=O)[C@@H](C)NC(=O)[C@H]1CN(C(=O)Nc2ccccc2)CCN1C(C)=O [CBK289627]	121.476
O=C1N=C(NC2CC3CCC2C3)SC12CCCO2 (stereo not drawn) [CBK116312]	69.4451
O=c1cc(CSc2nnc(-c3ccccc3)[nH]2)nc2[nH]cnn12 [CBK294398]	113.898
CC(=O)N1CCCN(C(=O)Cn2cnc3ccc(F)cc3c2=O)CC1 [CBK245206]	48.2641
Cn1ncnc1COc1ccc(S(=O)(=O)N2CCCCC2CN)cc1 (stereo not drawn) [CBK304313C]	111.047
Cc1cccc(C)c1NC(=O)CSCC(=O)Nc1ccc2ccccc2c1 [CBK263274]	120.98
CCOc1ccc(Cl)cc1CN(C)C(=O)NC(C)CN1CCOCC1 (stereo not drawn) [CBK307170]	64.31
Cc1nc(CCNC(=O)c2cc(C(C)C)n(C(C)(C)C)n2)cs1 [CBK304082]	34.0632
COc1cc([N+](=O)[O-])ccc1NC(=O)CS(=O)(=O)Cc1ccccc1 [CBK266704]	85.3491
N#C/C(=C\c1cn(-c2ccccc2)nc1-c1ccc(S(=O)(=O)N2CCCCC2)cc1)c1nc2ccccc2c(=O)[nH]1 [CBK266268]	95.0192
O=[N+]([O-])c1ccc(-c2ccc(/N=C/c3ccco3)cc2)cc1 [CBK261639]	89.4218
C/C(=N/NC(=O)C(C)CN1CCOCC1)c1ccc(Cl)cc1 (stereo not drawn) [CBK016045]	67.096
O=c1[nH]c(CSc2nnc(COc3ccccc3)o2)nc2ccccc12 [CBK269869]	102.667
CCNC(=O)CN1CCN(c2nc(C(F)(F)F)ccc2C#N)CC1 [CBK305515]	41.5995
O=C(CSc1ccc(Cl)cc1)NCCCN1CCOCC1 [CBK009390]	41.4355
CCOc1cccc(N2C(=O)CC(N3CCN(c4ccccn4)CC3)C2=O)c1 (stereo not drawn) [CBK262829]	98.2287
Cc1nn(CC(=O)N(C(C)C)C(C)C)c(=O)c2cc3occc3n12 [CBK283655]	83.4472
